From PubChem BioAssay AID624417 (National Center for Advancing Translational Sciences (NCATS), 2012)
“And” between values parts separate entries of the source, which are not always exact repeats. Equal entries are not always repeated. The campaign covered roughly 410,000 compounds. About 6,400 (1.6%) were called active. This list was built around the results that the source calls inconclusive (neither active nor inactive); the mix of calls is not that of the screen. The call rests on the fitted dose curve; in most records, active means well fitted inhibition curve with a large enough effect; inconclusive means small, poorly fitted or top-dose-only effect; inactive means no such curve, though single readings can be large or run the other way. Potencies beside an inconclusive call are fits to weak or partial responses and may not hold up.

target: Glucagon-like peptide 1 receptor (Homo sapiens) (UniProt P43220); assay: qHTS of GLP-1 Receptor Inverse Agonists (Inhibition Mode); details: HEK293 GLP-1R CRE-luciferase, luminescence, 24 h, GLP-1R form is constitutively active; series mostly up to 38.3 µM; further: nearly all actives have a fitted effect of over 55% in size
Sequence of UniProt P43220 (P43220 whole entry, looked up): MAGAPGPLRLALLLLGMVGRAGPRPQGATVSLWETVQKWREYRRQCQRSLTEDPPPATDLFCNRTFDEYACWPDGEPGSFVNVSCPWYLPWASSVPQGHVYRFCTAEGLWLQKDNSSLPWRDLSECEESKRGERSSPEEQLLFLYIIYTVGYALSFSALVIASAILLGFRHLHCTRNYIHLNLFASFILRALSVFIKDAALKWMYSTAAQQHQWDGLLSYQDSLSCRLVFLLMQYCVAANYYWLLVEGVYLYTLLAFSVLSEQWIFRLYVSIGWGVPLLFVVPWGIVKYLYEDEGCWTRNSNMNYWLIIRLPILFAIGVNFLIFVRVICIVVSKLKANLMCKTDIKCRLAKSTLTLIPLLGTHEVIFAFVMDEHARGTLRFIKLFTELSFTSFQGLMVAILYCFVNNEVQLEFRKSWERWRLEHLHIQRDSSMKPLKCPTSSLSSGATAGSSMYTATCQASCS
Outline: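 Stable HEK293 clone (constitutively active GLP-1R + cAMP-response luciferase); 200 cells/uL plated, 12 h pre-culture, compound 24 hr, 37 deg C/5% CO2; detection reagent 12 min RT; luminescence.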
Potency means the concentration at half of the fitted maximal effect; tags describe the fitted curve by direction and shape.

Potency, active:
COc1ccc2[nH]c(-c3ccc(C)cc3)cc(=O)c2c1 3.16 µM

Potency, inactive:
c1ccc(-n2ncc3c(N4CCN(CCOc5cccc6ccccc56)CC4)ncnc32)cc1, COCCCN(C)C1CCN(C(=O)Nc2ccc(F)cc2)CC1, COc1cccc(CC(=O)Nc2cc(C(F)(F)F)ccc2N2CCCC2)c1, COc1cccc(C2C(C#N)=C(C)NC3=C2C(=O)CC(C)(C)C3)c1 (stereo not drawn), O=C(NCCc1ccc(O)c(O)c1)C1COc2ccccc2O1 (stereo not drawn), O=C1CCN(Cc2ccco2)C(=S)N1, Cc1ccc2c(c1)NC(=O)CC(c1ccccc1)=N2, Cc1ccc(C(=O)Nc2cc(C(F)(F)F)ccc2-n2cncn2)o1, CCc1ccc2oc(C(=O)Nc3ccc(S(N)(=O)=O)cc3)c(C)c2c1, Cc1cccc(NC(=O)/C(=C\c2ccco2)NC(=O)c2cccs2)c1, CCOc1ccc(N2CC(O)(c3ccc(F)cc3)[N+]3=C2CCCC3)cc1 (stereo not drawn), CC(CNc1nc2ccc(Cl)cc2n2cnnc12)c1ccccc1 (stereo not drawn), Cc1ccc2nc3c(cc(C#N)c(=O)n3-c3nccs3)c(=O)n2c1, CSc1nc(Cl)c(Br)c(Nc2c[nH]c(=O)[nH]c2=O)n1, Cc1ccccc1CNCCSc1nnnn1-c1ccccc1

Potency, inconclusive:
COc1ccc([C@H]2/C=C\CN(Cc3ccc(N(C)C)cc3)[C@@H](C)C(=O)N2Cc2ccc(F)cc2)cc1 20 µM [inhibitor, single point], COc1ccc(CCNC(=O)c2cccc([N+](=O)[O-])c2)cc1OC 0.501 µM [inhibitor, full curve, poor fit], COc1ccc(N2CCN(CC(=O)Nc3ccccc3SC)CC2)cc1 11.2 µM [inhibitor, partial curve, poor fit], Oc1ccc2ccccc2c1/C=N/c1nc2c(s1)CCCC2 11.2 µM [inhibitor, partial curve, poor fit], CCOC(=O)n1cc(-c2cnc(CNC(=O)C(C)(c3ccccc3)c3ccccc3)o2)c2ccccc21 22.4 µM [inhibitor, single point], O=C1NN(c2ccc(Br)cc2)C(=O)/C1=C\c1ccc(O)cc1O 2.51 µM [inhibitor, full curve, poor fit], Cc1onc(-c2ccccc2Cl)c1C(=O)OCC(=O)Nc1ccc2c(c1)OCO2 28.2 µM [inhibitor, single point], CN(CC(=O)Nc1ccc(F)cc1Cl)Cc1cccs1 14.1 µM [inhibitor, single point], CCOC(=O)[C@]12CCC=C1N(Cc1ccc(Cl)cc1Cl)C(=O)[C@H](CC(=O)N1CCN(C(=O)c3ccco3)CC1)C2 12.6 µM [inhibitor, single point], CN(CC(=O)NC(=O)NC1CCCCC1)CC(=O)Nc1ccc(Cl)cc1 11.2 µM [inhibitor, single point], CCOc1cccc(Nc2ccc([N+](=O)[O-])cn2)c1 28.2 µM [inhibitor, single point], CSc1ccc(CCNc2ncnc3onc(-c4ccc(Cl)cc4)c23)cc1 31.6 µM [inhibitor, partial curve, poor fit], Cc1ccc(C(C)C)c(OCC(O)CN(C)Cc2ccccc2)c1 (stereo not drawn) 11.2 µM [inhibitor, partial curve, poor fit], CCCCN(CC)CCNC(=O)c1ccc2c(Cl)c3c(nc2c1)CCC3 17.8 µM [inhibitor, partial curve, poor fit], O=C(Nc1cccc(S(=O)(=O)NCc2ccco2)c1)c1cc(-c2ccccc2)nc2ccccc12 7.94 µM [inhibitor, partial curve, poor fit], Cc1cc(C)cc(C(=O)OCC(=O)N2CCCCCC2)c1 3.16 µM [inhibitor, partial curve, poor fit], Cc1nc2nc(SCC(=O)N(Cc3ccccc3)C(C)C)nn2c(C)c1Cc1ccccc1Cl 28.2 µM [inhibitor, single point], CCOCCCNS(=O)(=O)c1ccc(NC(=O)Cc2c(F)cccc2Cl)cc1 11.2 µM [inhibitor, partial curve, poor fit], Cc1ccsc1C(=O)NCCC(c1ccccc1)c1ccccc1 8.91 µM [inhibitor, partial curve], Cc1ccc(C(=O)Nc2ccccc2C(=O)O)cc1NC(=O)COc1c(C)cccc1C 15.8 µM [inhibitor, partial curve, poor fit], Cc1ccccc1NC(=S)N(Cc1ccccn1)Cc1ccccc1Cl 11.2 µM [inhibitor, single point], Cc1cccc(N2CCN(C(=O)CCCCCn3c(=S)[nH]c4ccc(N5CCOCC5)cc4c3=O)CC2)c1C 3.16 µM [inhibitor, partial curve, poor fit], Cc1cccc(NC(=S)N(CCN(C)C)C(C)c2ccccn2)c1 (stereo not drawn) 5.01 µM [inhibitor, partial curve, poor fit], COc1ccccc1NC(=O)Nc1nc(C(C)(C)C)cs1 3.16 µM [inhibitor, full curve], CCOc1ccccc1-n1c(SCC(=O)Nc2nccs2)nnc1-c1ccoc1C 31.6 µM [inhibitor, single point], CC(C)(C)c1cc(C(=O)NN)n(Cc2ccc(Cl)cc2Cl)n1 11.2 µM [inhibitor, single point], COc1ccc2[nH]c(=O)c(CN(CCCN(C)C)C(=O)Nc3ccc(F)cc3)cc2c1 10 µM [inhibitor, partial curve, poor fit], COc1cc2c(cc1OC)CN(C(=O)c1ccc3nc[nH]c3c1)CC2 3.55 µM [inhibitor, full curve, poor fit], COc1ccccc1N(C)S(=O)(=O)c1ccc(C(=O)Nc2cccc(Br)c2)cc1 7.94 µM [inhibitor, partial curve, poor fit], CN(c1ccccc1)S(=O)(=O)c1cccc(C(=O)NC2CCCC2)c1 28.2 µM [inhibitor, single point], CNC[C@@H]1OCc2ccccc2-c2c(n(C)c3ccccc23)C(=O)N([C@H](C)CO)C[C@@H]1C 28.2 µM [inhibitor, single point], CCC(C)[C@H](NC(=O)[C@@H]1Cc2ccccc2CN1)C(=O)NCc1ccc(C)cc1 (stereo partly drawn) 10 µM [inhibitor, single point], COc1ccc(CNC(=O)c2nc(S(=O)(=O)Cc3ccccc3)ncc2Cl)cc1 31.6 µM [inhibitor, single point] and 11.2 µM [inhibitor, single point], COCCNC(=O)c1ccc(CSCc2cccc(Cl)c2)o1 10 µM [inhibitor, single point], COc1ccc([N+](=O)[O-])cc1NC(=O)Cc1ccc(Cl)cc1 31.6 µM [inhibitor, single point], CCCN(CC(=O)Nc1ccc(F)c(F)c1F)C(=O)c1ccc(=O)n(Cc2ccccc2)n1 3.16 µM [inhibitor, partial curve, poor fit], COc1ccc(Cn2ccnc2SCC(=O)Nc2ccc(F)cc2F)cc1 14.1 µM [inhibitor, single point], CC(=O)Nc1ccc(-c2ccnc3c2CC(C)(C(=O)Nc2ccc(F)c(Cl)c2)O3)cc1 (stereo not drawn) 31.6 µM [inhibitor, partial curve, poor fit], Cc1ccc(-n2c(=O)c3ccc(C(=O)NCc4ccco4)cc3n(Cc3ccc(Cl)cc3)c2=O)cc1 12.6 µM [inhibitor, partial curve, poor fit], Cn1c(=O)n(CCCOc2ccc(Br)cc2)c2ccccc21 12.6 µM [inhibitor, single point], CCOC(=O)N1CCN(Cc2nc3cc(NC(=O)c4ccccc4OC)ccc3n2C(C)C)CC1 3.16 µM [inhibitor, full curve], C/C(=N\NC(=O)c1ccc(Cl)c(Cl)c1)c1ccccn1 3.16 µM [inhibitor, full curve, poor fit], COc1ccc(C(=O)CN2CC(C)SC2=Nc2ccc(Cl)cc2)cc1 (stereo not drawn) 11.2 µM [inhibitor, single point], CCN1CCN(CCCN(Cc2ccco2)C(=S)Nc2ccc(Cl)cc2)CC1 7.94 µM [inhibitor, partial curve, poor fit], O=S(=O)(Nc1cc(F)ccc1F)c1cccc2nonc12 28.2 µM [inhibitor, single point], CC(=O)Nc1cc2c(c([N+](=O)[O-])c1C)C(C)(C)CC2(C)C 7.94 µM [inhibitor, partial curve, poor fit], OC(COc1cccc2ccccc12)CN1CCN(c2cccc(Cl)c2)CC1 (stereo not drawn) 28.2 µM [inhibitor, partial curve, poor fit]
